Assay results as given in publication PMC12820563.
Some of the results follow. The list includes weakly bound sequences.

What follows are sequences tested against T1, MBP-FoxP3dN (UniProt Q99JB6) (assay: PD-seq (MBP pull-down with sequencing)). Settings: 20 mM Tris-HCl pH 7.5, 100 mM NaCl, 1.5 mM MgCl2, 0.4 uM protein, 0.1 uM dsDNA library, 30 min, room temperature, amylose pull-down; high values mean tight binding; double strand, one strand shown.
T1 sequence: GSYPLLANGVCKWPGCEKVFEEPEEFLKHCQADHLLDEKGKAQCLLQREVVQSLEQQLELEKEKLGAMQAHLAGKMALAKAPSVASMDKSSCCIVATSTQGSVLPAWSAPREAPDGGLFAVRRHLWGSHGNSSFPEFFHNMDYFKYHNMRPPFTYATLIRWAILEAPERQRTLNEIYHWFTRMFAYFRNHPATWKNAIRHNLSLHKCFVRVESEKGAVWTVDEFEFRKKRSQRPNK

Sequence | binding signal (RPM ratio (pull-down/input))
GATGATTGTTCTCCCAGCTGATGAATTTGAACCCTCGAGTAAACAAATTTTCCTAATCTTTCTGTTCAAGCGCCATCTAC | 0.333
GATGATTGTTCTCCCAGCTGATGAATTATAACCCTCGAGTAAACAAATTTTCCTAATCTTTCTGTTCAAGCGCCATCTAC | 0.348
GATGATTGTTCTCCCAGCTGATGAATTTGGCGCTTCGAGTAAACAAATTTTCCTAATCTTTCTGTTCAAGCGCCATCTAC | 0.966
GATGATTGTTCTCCCAGCTGATGAATTACAATTTTCGAGTAAACAAATTTTCCTAATCTTTCTGTTCAAGCGCCATCTAC | 0.648
GATGATTGTTCTCCCAGCTGATGAATTGCTCATGTCGAGTAAACAAATTTTCCTAATCTTTCTGTTCAAGCGCCATCTAC | 0.617
GATGATTGTTCTCCCAGCTGATGAATTCAACAACTCGAGTAAACAAATTTTCCTAATCTTTCTGTTCAAGCGCCATCTAC | 0.576
GATGATTGTTCTCCCAGCTGATGAATTTTAGTTTTCGAGTAAACAAATTTTCCTAATCTTTCTGTTCAAGCGCCATCTAC | 0.82
GATGATTGTTCTCCCAGCTGATGAATTCTTATGCTCGAGTAAACAAATTTTCCTAATCTTTCTGTTCAAGCGCCATCTAC | 0.443
GATGATTGTTCTCCCAGCTGATGAATTCTATTATTCGAGTAAACAAATTTTCCTAATCTTTCTGTTCAAGCGCCATCTAC | 5
GATGATTGTTCTCCCAGCTGATGAATTGATACCATCGAGTAAACAAATTTTCCTAATCTTTCTGTTCAAGCGCCATCTAC | 1.06
GATGATTGTTCTCCCAGCTGATGAATTGAGCTAATCGAGTAAACAAATTTTCCTAATCTTTCTGTTCAAGCGCCATCTAC | 0.288
GATGATTGTTCTCCCAGCTGATGAATTGCGTCGTTCGAGTAAACAAATTTTCCTAATCTTTCTGTTCAAGCGCCATCTAC | 1.4
GATGATTGTTCTCCCAGCTGATGAATTAACACAGTCGAGTAAACAAATTTTCCTAATCTTTCTGTTCAAGCGCCATCTAC | 0.382
GATGATTGTTCTCCCAGCTGATGAATTCGAACGTTCGAGTAAACAAATTTTCCTAATCTTTCTGTTCAAGCGCCATCTAC | 0.341
GATGATTGTTCTCCCAGCTGATGAATTACATTACTCGAGTAAACAAATTTTCCTAATCTTTCTGTTCAAGCGCCATCTAC | 0.861
GATGATTGTTCTCCCAGCTGATGAATTCCATAAGTCGAGTAAACAAATTTTCCTAATCTTTCTGTTCAAGCGCCATCTAC | 0.258
GATGATTGTTCTCCCAGCTGATGAATTGCAATCTTCGAGTAAACAAATTTTCCTAATCTTTCTGTTCAAGCGCCATCTAC | 1.72
GATGATTGTTCTCCCAGCTGATGAATTTCCGTTCTCGAGTAAACAAATTTTCCTAATCTTTCTGTTCAAGCGCCATCTAC | 0.504
GATGATTGTTCTCCCAGCTGATGAATTCGACTAGTCGAGTAAACAAATTTTCCTAATCTTTCTGTTCAAGCGCCATCTAC | 0.306
GATGATTGTTCTCCCAGCTGATGAATTCTGGCGTTCGAGTAAACAAATTTTCCTAATCTTTCTGTTCAAGCGCCATCTAC | 1.13

Sequence | binding signal (RPM ratio (pull-down/input))
GATGATTGTTCTCCCAGCTGATGAATTCTGGAATTCGAGTAAACAAATTTTCCTAATCTTTCTGTTCAAGCGCCATCTAC | 0.579
GATGATTGTTCTCCCAGCTGATGAATTCTCGAAATCGAGTAAACAAATTTTCCTAATCTTTCTGTTCAAGCGCCATCTAC | 0.241
GATGATTGTTCTCCCAGCTGATGAATTTAATTCTTCGAGTAAACAAATTTTCCTAATCTTTCTGTTCAAGCGCCATCTAC | 0.786
GATGATTGTTCTCCCAGCTGATGAATTGAAACTATCGAGTAAACAAATTTTCCTAATCTTTCTGTTCAAGCGCCATCTAC | 0.434
GATGATTGTTCTCCCAGCTGATGAATTAGCTTCTTCGAGTAAACAAATTTTCCTAATCTTTCTGTTCAAGCGCCATCTAC | 0.901
GATGATTGTTCTCCCAGCTGATGAATTGGCAGTTTCGAGTAAACAAATTTTCCTAATCTTTCTGTTCAAGCGCCATCTAC | 0.452
GATGATTGTTCTCCCAGCTGATGAATTATGACGGTCGAGTAAACAAATTTTCCTAATCTTTCTGTTCAAGCGCCATCTAC | 0.372
GATGATTGTTCTCCCAGCTGATGAATTTTTTTTCTCGAGTAAACAAATTTTCCTAATCTTTCTGTTCAAGCGCCATCTAC | 0.267
GATGATTGTTCTCCCAGCTGATGAATTGTGGTCTTCGAGTAAACAAATTTTCCTAATCTTTCTGTTCAAGCGCCATCTAC | 1.15
GATGATTGTTCTCCCAGCTGATGAATTGATCTTGTCGAGTAAACAAATTTTCCTAATCTTTCTGTTCAAGCGCCATCTAC | 0.293
GATGATTGTTCTCCCAGCTGATGAATTTTAAACCTCGAGTAAACAAATTTTCCTAATCTTTCTGTTCAAGCGCCATCTAC | 0.227
GATGATTGTTCTCCCAGCTGATGAATTCGAGGCGTCGAGTAAACAAATTTTCCTAATCTTTCTGTTCAAGCGCCATCTAC | 0.633
GATGATTGTTCTCCCAGCTGATGAATTGCCGTCATCGAGTAAACAAATTTTCCTAATCTTTCTGTTCAAGCGCCATCTAC | 1.1
GATGATTGTTCTCCCAGCTGATGAATTAAAGCTGTCGAGTAAACAAATTTTCCTAATCTTTCTGTTCAAGCGCCATCTAC | 0.47
GATGATTGTTCTCCCAGCTGATGAATTCAAAATTTCGAGTAAACAAATTTTCCTAATCTTTCTGTTCAAGCGCCATCTAC | 0.239
GATGATTGTTCTCCCAGCTGATGAATTATCTTCTTCGAGTAAACAAATTTTCCTAATCTTTCTGTTCAAGCGCCATCTAC | 0.337
GATGATTGTTCTCCCAGCTGATGAATTGCACGGATCGAGTAAACAAATTTTCCTAATCTTTCTGTTCAAGCGCCATCTAC | 0.516
GATGATTGTTCTCCCAGCTGATGAATTATAATGATCGAGTAAACAAATTTTCCTAATCTTTCTGTTCAAGCGCCATCTAC | 0.639
GATGATTGTTCTCCCAGCTGATGAATTCTTTTGTTCGAGTAAACAAATTTTCCTAATCTTTCTGTTCAAGCGCCATCTAC | 0.487
GATGATTGTTCTCCCAGCTGATGAATTCATGACATCGAGTAAACAAATTTTCCTAATCTTTCTGTTCAAGCGCCATCTAC | 0.595
